# The campaign covered roughly 340,000 compounds. About 12,000 (3.5%) were called active. The shares of active, inactive and inconclusive entries below differ from those in the screen. Calls follow the shape of the dose curve; as a rule, active = well fitted inhibition curve with a large enough effect; inconclusive = small, poorly fitted or top-dose-only effect, or another doubt; inactive = no such curve, though single readings can be large or run the other way. Potencies of inconclusive entries are left out as doubtful fits. Some structures have more than one record in an assay (separate samples or runs), and their calls can disagree.
# Test: qHTS Assay for Inhibitors of Hepatitis C Virus (HCV)
# Conditions: Huh7.5.1 HCVcc-Cre (HCVcc is cell-culture hepatitis C virus) infection, luciferase reporter, 44 h; activity change, negative = inhibition: at 41.8 µM (top of the series) unless noted
# In short: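 Compounds are dispensed onto cells plated 4 h earlier at 1,000 per well, with HCVcc-Cre virus (about 0.5 moi) added next. Following 44 h of culture, luminescent signal is measured for 15 sec after 15 min with substrate at room temperature.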
# % is scaled to controls: 0 for no effect and ±100 for the full control effect; potency is read from the fitted curve at half-maximal effect; tags tell the direction and shape of the fitted curve.
SMILES,Potency,"activity change, negative = inhibition"
Cc1nn(C)c2nc(-c3cccs3)cc(C(F)(F)F)c12,"inconclusive [inhibitor, single point]",
O=C1CCCCCN1Cc1nnc(SCc2nc3ccccc3s2)n1-c1ccccn1,inactive,
NS(=O)(=O)c1ccc(CNC(=S)NC2CCCC2)cc1,inactive,
Cc1ccc(-c2nn(-c3ccccc3)c3[nH]c(=O)c(CNCc4ccccc4)cc23)cc1,"inconclusive [inhibitor, partial curve]",
COc1ccc(/C(C)=N/NC(=O)CNC(=O)C2COc3ccccc3O2)c(OC)c1 (stereo not given),"inconclusive [inhibitor, full curve, poor fit]",
CC(C)N1CCc2c(sc(NC(=O)c3nc4ccccc4s3)c2C(N)=O)C1,"inconclusive [inhibitor, partial curve]",
O=C(NC(=S)NNC(=O)c1cccs1)c1ccco1,"inconclusive [inhibitor, full curve, poor fit]",
COc1ccc(Cl)cc1NC(=O)NCc1ccco1,"inconclusive [inhibitor, single point]",
CCCCCC(O)c1cccc(OCc2ccc3ccccc3n2)c1 (stereo not given),active: 14.1 µM,inactive: 0.332% [at 8.37 µM]
COc1ccc(-c2c(C)nc3c(-c4ccc(F)cc4)cnn3c2N)cc1,inactive,
CSc1cccc(CN2CCN(Cc3ccccc3)C(CCO)C2)c1 (stereo not given),inactive,
CCCn1c(N)c(N(CCOC)C(=O)c2cc(-c3ccco3)nc3ccccc23)c(=O)[nH]c1=O,inactive,
CCOc1ccccc1NC(=O)C1CCCN(S(=O)(=O)c2cccc3nsnc23)C1 (stereo not given),"inconclusive [inhibitor, single point]",
COc1cc2ccccc2cc1C(=O)Nc1ccccc1N1CCN(S(C)(=O)=O)CC1,"inconclusive [inhibitor, single point]",
Nc1nonc1C(=O)N/N=C/c1ccc(Br)o1,inactive,
CC(CNc1ccccc1O)C(=O)O (stereo not given),inactive,
Cc1cccc(C(=O)NCc2nnc(SCC(=O)Nc3nnc(C)s3)n2C)c1,inactive,
CCCCn1nc2cc(C(=O)NCc3ccc(C(F)(F)F)cc3C(F)(F)F)ccc2c1OCC,"inconclusive [inhibitor, full curve, poor fit]",
Cn1c(COc2ccc(Br)cc2)nnc1SC1CCc2ccccc2C1=O (stereo not given),"inconclusive [inhibitor, partial curve]",
Cc1c(Cc2ccccc2)c(=O)oc2cc(OCC(=O)N3CCC(C(N)=O)CC3)ccc12,"inconclusive [inhibitor, full curve]",
COc1ccc(Br)cc1/C=N/NC(=O)c1ccc(COc2ccc3c(c2)CCC3)o1,"inconclusive [inhibitor, full curve]",
C=CCNC(=O)c1ccc(-c2nc(-c3ccccc3)cs2)cc1,"inconclusive [inhibitor, partial curve]",

SMILES,Potency,"activity change, negative = inhibition"
Cc1nn(C(C)C(=O)N2CCCCC2)c(=O)c2c1sc1ccccc12 (stereo not given),"inconclusive [inhibitor, partial curve]",
COC(=O)c1cc(S(=O)(=O)Nc2cccc(OC)c2)cn1C,"inconclusive [inhibitor, single point]",
O=C(Nc1ccccc1Br)C1CC(=O)N(c2ccc3c4c(cccc24)CC3)C1 (stereo not given),"inconclusive [inhibitor, full curve, poor fit]",
Cc1cn(CC(=O)NCC2CCCO2)c(=O)[nH]c1=O (stereo not given),"inconclusive [inhibitor, single point]",
CC[C@]12c3[nH]c4cc(-c5ccco5)ccc4c3CCN1C(=O)[C@@H](CC(=O)NCc1cccc(C(F)(F)F)c1)C[C@@H]2C(=O)N1CCN(C(=O)c2ccco2)CC1,"inconclusive [inhibitor, single point]",
C/C(=N\NC(=O)c1cccc([N+](=O)[O-])c1)c1cccc(NC(=O)C2CC2)c1,,inconclusive: -39.3% [inhibitor]
Cc1ccc(NC(=O)c2ccc(Cl)c(S(=O)(=O)NCC3CCCO3)c2)c(O)c1 (stereo not given),"inconclusive [inhibitor, single point]",
Cn1c(CN2CCCCC2)nc2cc(NC(=O)c3ccc(F)cc3)ccc21,active: 10 µM,
CCOC(=O)C1(Cc2ccccc2)NC(c2ccccc2F)C2C(=O)N(CC)C(=O)C21 (stereo not given),"inconclusive [inhibitor, partial curve, poor fit]",
COc1ccc(-n2c(O)c(/C(C)=N/Nc3ccccc3)c(=O)[nH]c2=O)cc1,inactive,
Cc1c(O)cc2c(c1O)C(=O)CC(c1ccccc1)O2 (stereo not given),"inconclusive [inhibitor, partial curve]",
CCN(CC)S(=O)(=O)c1ccc(C(=O)NCCc2cc3c(OC)ccc(OC)c3[nH]c2=O)cc1,"inconclusive [inhibitor, partial curve]",
N#C/C(=C1/CCCCCN1)c1nc2ccccc2s1,"inconclusive [inhibitor, full curve, poor fit]",
COc1ccc(N2CCN(CC(=O)Nc3cccc(S(=O)(=O)N4CCOCC4)c3)CC2)cc1,"inconclusive [inhibitor, partial curve]",
O=C(NCCc1cccc(C(F)(F)F)c1)C1CCC(=O)N(CCc2cccc(F)c2)C1 (stereo not given),inactive,
Cc1cccc(N2CCCn3c2nc2c3c(=O)n(CCN3CCOCC3)c(=O)n2C)c1,"inconclusive [inhibitor, single point]",
CCOC(=O)C1Oc2ccccc2C(c2ccc(C)cc2)=C1C(=O)OC (stereo not given),"inconclusive [inhibitor, partial curve, poor fit]",
Cc1cc(O)c(C(C)C)cc1C1(c2cc(C(C)C)c(O)cc2C)OC(=O)c2ccccc21,active: 5.62 µM,
CCOc1ccc(C2c3[nH]c4ccccc4c3CCN2CCCn2cccn2)cc1 (stereo not given),"inconclusive [inhibitor, partial curve]",
Nc1nnc(CC(=O)N/N=C/c2ccccc2OCc2ccc(F)cc2)s1,inactive,
CS(=O)(=O)N(CC(=O)N1CCCCCC1)Cc1ccc(Cl)cc1,inactive,
CCCc1nc2ccc(NC(=O)c3cccs3)cc2c(=O)n1Cc1ccc(Cl)cc1,"inconclusive [inhibitor, full curve, poor fit]",

SMILES,Potency,"activity change, negative = inhibition"
COc1ccc(-c2nc(NC(=O)c3ccc(OCC(=O)Nc4ccc(F)cc4)c(OC)c3)sc2C)cc1,"inconclusive [inhibitor, full curve, poor fit]",
CCc1c(C)nc2cc(-c3ccc(OC)cc3)[nH]n2c1=O,"inconclusive [inhibitor, partial curve]",
COc1ccccc1NC(=O)N1CCC(C(=O)c2ccc(F)cc2)CC1,"inconclusive [inhibitor, single point]",
CC(C)N1CCc2c(sc(NC(=O)CCc3ccccc3)c2C(N)=O)C1,"inconclusive [inhibitor, single point]",
O=C(/C=C/c1ccc2c(c1)OCO2)N1CCN(c2ccc(Cl)cc2)CC1,inactive,
CC(C)N(C(=O)COC(=O)c1ccccc1C(=O)c1ccc(Cl)c([N+](=O)[O-])c1)C(C)C,"inconclusive [inhibitor, single point]",
Cn1c(N2CCN(C(c3ccccc3)c3ccccc3)CC2)nc2ccccc21,"inconclusive [inhibitor, partial curve, poor fit]",
COc1cccc(NC(=S)N(CCc2c(C)[nH]c3ccc(C)cc23)Cc2cccs2)c1,"inconclusive [inhibitor, single point]",
Cc1cc2ncn(/N=C/c3ccc([N+](=O)[O-])o3)c2cc1C,active: 11.2 µM,
CCN(CC)c1ccc(C(=O)OCC(=O)Nc2cccc(S(=O)(=O)NC3=NCCCCC3)c2)cc1,"inconclusive [inhibitor, partial curve]",
CCCCCCN1C(=O)CC(NC(=O)OCC2c3ccccc3-c3ccccc32)C/C=C\C1C(C)C (stereo not given),"inconclusive [inhibitor, partial curve]",
O=C(Nc1cccc(S(=O)(=O)N2CCOCC2)c1)c1cc(=O)[nH]c2ccccc12,"inconclusive [inhibitor, partial curve, poor fit]",
Cc1ccccc1N=C1SC(CC(=O)Nc2ccc3ccccc3c2)C(=O)N1Cc1ccccn1 (stereo not given),active: 10 µM,
CCc1cccc(CC)c1NC(=O)COc1ccccc1C(=O)c1cc(C#N)c(=O)n(C2CCCCC2)c1,"inconclusive [inhibitor, partial curve]",
O=C(NNC(=S)NC(=O)c1sc2ccccc2c1Cl)c1ccc(Cl)cc1,"inconclusive [inhibitor, single point]",
CCCNS(=O)(=O)c1ccc(OCC(=O)NCCCOC)cc1,"inconclusive [inhibitor, single point]",
COC(=O)c1ccc(NC(=O)COC(=O)C2CCC2)cc1,"inconclusive [inhibitor, partial curve, poor fit]",
Cc1ccc(C(=O)Nc2nc(=O)n(C(=O)C3CC3)s2)cc1,"inconclusive [inhibitor, single point]",
Nc1ccccc1SC1CC(=O)N(c2ccc(Cl)c(Cl)c2)C1=O (stereo not given),"inconclusive [inhibitor, single point]",
Cc1ccc2nc(SCc3ccc([N+](=O)[O-])cc3)[nH]c2c1,"inconclusive [inhibitor, partial curve]",

# Reference: PubChem BioAssay AID651820 (National Center for Advancing Translational Sciences (NCATS), 2012)
